Results on 45 compounds are retold here after paper PMC4336329 (PLoS ONE, 2015).

Structures are written as SMILES. Screen size: about 310,000 compounds; about 14,000 (4.5%) showed an effect of 50% or more. The effect is printed as a negative number. The list shows a part of the results.
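Note: peak tail current of the secondary pulse compared with the same well before compound.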

Sequence of human ether-à-go-go-related gene (hERG) potassium channel (Q12809 whole entry, looked up): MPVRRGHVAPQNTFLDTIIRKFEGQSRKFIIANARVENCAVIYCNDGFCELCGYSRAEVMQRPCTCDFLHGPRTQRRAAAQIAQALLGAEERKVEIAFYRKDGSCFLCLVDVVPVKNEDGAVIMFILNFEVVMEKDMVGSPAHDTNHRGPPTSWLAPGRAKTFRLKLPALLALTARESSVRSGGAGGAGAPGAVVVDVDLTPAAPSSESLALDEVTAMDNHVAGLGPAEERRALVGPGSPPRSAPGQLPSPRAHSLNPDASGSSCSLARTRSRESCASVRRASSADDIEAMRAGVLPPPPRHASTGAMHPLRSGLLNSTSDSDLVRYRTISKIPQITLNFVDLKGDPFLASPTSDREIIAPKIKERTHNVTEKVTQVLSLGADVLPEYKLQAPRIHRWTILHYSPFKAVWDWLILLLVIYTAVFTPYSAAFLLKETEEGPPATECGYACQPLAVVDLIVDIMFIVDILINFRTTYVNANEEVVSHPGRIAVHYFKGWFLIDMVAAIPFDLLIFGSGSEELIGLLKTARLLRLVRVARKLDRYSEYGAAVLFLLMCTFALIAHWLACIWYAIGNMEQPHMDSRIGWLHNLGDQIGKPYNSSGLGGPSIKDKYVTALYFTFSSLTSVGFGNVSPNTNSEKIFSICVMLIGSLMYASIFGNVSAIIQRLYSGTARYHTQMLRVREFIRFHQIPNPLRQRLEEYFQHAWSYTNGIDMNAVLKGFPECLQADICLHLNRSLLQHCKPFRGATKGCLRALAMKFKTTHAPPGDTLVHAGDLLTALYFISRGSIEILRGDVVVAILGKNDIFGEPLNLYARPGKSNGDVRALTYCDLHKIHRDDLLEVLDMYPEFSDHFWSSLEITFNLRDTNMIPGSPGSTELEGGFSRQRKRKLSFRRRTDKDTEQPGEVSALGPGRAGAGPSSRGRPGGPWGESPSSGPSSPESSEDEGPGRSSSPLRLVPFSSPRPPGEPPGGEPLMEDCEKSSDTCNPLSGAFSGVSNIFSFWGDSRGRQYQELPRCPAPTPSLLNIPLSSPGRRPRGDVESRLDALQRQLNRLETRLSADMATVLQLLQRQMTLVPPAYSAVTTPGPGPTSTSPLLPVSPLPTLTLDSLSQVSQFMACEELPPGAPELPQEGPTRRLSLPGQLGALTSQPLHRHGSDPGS

The assay concerns the target human ether-à-go-go-related gene (hERG) potassium channel (human, UniProt Q12809). The assay can be described thus: primary screen, population patch clamp on CHO cells stably expressing hERG.
With `CC(C)c1ccc(/C=C2\Oc3c(ccc(O)c3CN3CCN(C)CC3)C2=O)cc1`, the “hERG current change (%, negative = inhibition) at 10uM” value is listed as -5.69%.

For `O=C(c1ccc2ccccc2c1)N1CCN(S(=O)(=O)/C=C/c2ccccc2)CC1`, the “hERG current change (%, negative = inhibition) at 10uM” value is -31.9%. For the compound `CCN(CC)c1ccc(NC(=O)c2ccc(Br)o2)c(C)c1`, the “hERG current change (%, negative = inhibition) at 10uM” value is listed as -1.8%.

Consider `CC1=C2C(CCS2(=O)=O)CC2(C1)C(=O)OC(C)(C)OC2=O` (stereo not drawn), for which the “hERG current change (%, negative = inhibition) at 10uM” value was found to be 4.47%.

For `Cc1ccc(S(=O)(=O)NC(Cc2ccccc2)C(=O)O)cc1` (stereo not drawn), the “hERG current change (%, negative = inhibition) at 10uM” value is listed as -8.33%. With `O=C(NC(=S)Nc1ccc2c(c1)OCCO2)c1ccc(F)cc1Cl` the figure was 15.6%; with `CCOCCCn1c(SC(C)C(=O)NCC2CCCO2)nc2sc(C)c(C)c2c1=O` (stereo not drawn), 0.863%; with `C/C(NC1CCCC1)=C(/C#N)C(N)=O`, 4.5%. As for `C/C(=N\Nc1nc(C(C)(C)C)cs1)c1ccccc1`, the “hERG current change (%, negative = inhibition) at 10uM” value is given as 16.4%.

As to `COc1ccc(CCNC(=O)Cn2c(=O)oc3cc(Cl)ccc32)cc1OC`, the “hERG current change (%, negative = inhibition) at 10uM” value was -2.54%. With `O=C(Cn1cnc2c(cnn2-c2ccc(F)cc2)c1=O)NCC1CCCO1` (stereo not drawn) the figure was -13.1%; with `COc1cc(CCC(=O)OCC(=O)Nc2c(F)cccc2F)cc(OC)c1OC`, 5.38%; with `COc1ccc(N2C(=O)C3CCCN3C2c2ccccc2)cc1Cl` (stereo not drawn), 7.28%.

Turning to `CCOc1cc(/C=N/O)ccc1OCc1ccc([N+](=O)[O-])cc1`, the “hERG current change (%, negative = inhibition) at 10uM” value is given as -13.6%. As for `CC(=O)N1CCN(CC(=O)Nc2cccc(S(=O)(=O)N3CCCCCC3)c2)CC1`, the “hERG current change (%, negative = inhibition) at 10uM” value is -23.3%. Regarding `COc1ccc(Br)cc1/C=C/C(=O)Nc1ccc(C)cc1`, the “hERG current change (%, negative = inhibition) at 10uM” value turned out to be 21.4%. As to `COC(=O)NC1c2ccccc2Oc2ccccc21`, the “hERG current change (%, negative = inhibition) at 10uM” value worked out at 41.4%. On to `Cc1ccc(C)c(-n2c(C)nc3ccccc3c2=O)c1`, for which the “hERG current change (%, negative = inhibition) at 10uM” value turned out to be 14.3%. In the case of `COc1ccc(OC)c(S(=O)(=O)NCCOC23CC4CC(CC(C4)C2)C3)c1` it was -18.8%; in that of `Cc1c(C(=O)NCC2CCCO2)sc2nc(-c3ccccc3)cn12` (stereo not drawn), -37.6%; in that of `O=C(Cn1c(=O)cnc2ccccc21)Nc1ccccc1N1CCOCC1`, -4.54%. With `Cc1c(OCC(=O)C(C)(C)C)ccc2c(-c3ccccc3)cc(=O)oc12` the figure was -12.5%; with `CNC(=O)CN1C(=O)NC2(CCc3ccccc3C2)C1=O` (stereo not drawn), 21.8%; with `c1ccc(C2=Nn3c(nnc3-c3ccccn3)SC2)cc1`, -11.6%. As for `CCOc1cccc(CNCc2ccncc2)c1`, the “hERG current change (%, negative = inhibition) at 10uM” value is -3.58%. With `COC(=O)c1ccc(NC(=O)C2C3CCC(C3)C2C(=O)O)cc1` (stereo not drawn) the figure was -10.7%. As for `COc1ccc(C(c2sc3nc(C)nn3c2O)N2CC(C)OC(C)C2)cc1OC` (stereo not drawn), the “hERG current change (%, negative = inhibition) at 10uM” value is -7.01%. In the case of `Cc1ccc(NC(=O)COC(=O)CN2C(=O)c3ccccc3C2=O)cc1S(=O)(=O)N(C)C` it was -17.2%; in that of `COc1cccc(CN=c2c([N+](=O)[O-])nn(-c3ccccc3C)n2O)c1`, 8.91%. On to `COc1ccccc1C(=O)Nc1ccc2[nH]ncc2c1`, for which the “hERG current change (%, negative = inhibition) at 10uM” value is recorded as 5.94%.

On to `CCn1c(-c2cc(-c3ccc(C)cc3)nc3ccccc23)n[nH]c1=S`, for which the “hERG current change (%, negative = inhibition) at 10uM” value worked out at 11.4%.

Consider `O=C(c1ccc(CS(=O)(=O)c2c(Cl)cccc2Cl)o1)N1CCN(c2ccccn2)CC1`, for which the “hERG current change (%, negative = inhibition) at 10uM” value is -39.6%. As to `Cc1cc(C)n(C(=O)CNC(=O)COc2ccccc2)n1`, the “hERG current change (%, negative = inhibition) at 10uM” value is given as 11.5%. In the case of `O=C(NCc1cccnc1)NC(=O)c1ccc(Cl)cc1` it was 3.09%; in that of `Cn1/c(=N\NC(=O)c2ccccc2Cl)sc2ccccc21`, 6.82%. With `CCOC(=O)c1oc2ccccc2c1NC(=O)Cc1cccs1` the figure was 0.503%; with `CCC(C)c1ccc(S(=O)(=O)N2CC(=O)Nc3ccccc32)cc1` (stereo not drawn), -11.2%. In the case of `COc1ccccc1N1CCN(S(=O)(=O)c2c(C)[nH]c(=O)[nH]c2=O)CC1`, the “hERG current change (%, negative = inhibition) at 10uM” value is -7.32%. As to `Cc1ccc(C)c(OCCCN2CCCC2)c1.O=C(O)C(=O)O`, the “hERG current change (%, negative = inhibition) at 10uM” value is given as -54.9%. With `CC12CN(NC(=O)c3ccc(Cl)cc3)C3(C#N)CC1CCC23C` (stereo not drawn) the figure was 19%; with `COc1ccccc1OCCCC(=O)NCc1ccco1`, 7.62%; with `CC(C)c1nnc(NC(=O)CCC(=O)N2CCN(c3cccc(Cl)c3)CC2)s1`, -5.57%. In the case of `Cc1ccnc(NC(=O)c2ccc(Cl)c(NC(=O)c3ccccc3C)c2)c1` it was 10.2%; in that of `COC(=O)c1ccccc1NC(=O)CCCn1nc(C)c2c(C)n(-c3ccccc3)nc2c1=O`, -14.7%.

For `c1ccc2c(c1)[nH]c1c(N3CCN(C4CCCCC4)CC3)ncnc12`, the “hERG current change (%, negative = inhibition) at 10uM” value is given as -42.7%.
